# From the supplement of paper PMC10037445
# Over roughly 2,900 compounds, “IRF Lucia reporter activity, fold change vs agonist alone” has its median near 0.9; the highest 2% begin near 2.8. The list shows a part of the results.
# Tests used:
# RAW-Dual [1] = experiment: IRF Lucia reporter activity, fold change vs agonist alone; higher = enhanced IRF activity; settings: cytotoxicity flag (confluency mask): not cytotoxic, agonist: MPLA (TLR4) […]
# Outline: (§1)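 Reporter activity is given as fold change relative to agonist-alone wells. To measure it, 50 nL of library stock was pin-tooled onto RAW-Dual macrophages (50,000 cells/well, DMEM, 384-well plates), a PRR agonist followed 1 h later, and cells stayed at 37 °C, 5% CO2. Twenty hours on, supernatant was assayed for IRF (QuantiLuc luminescence) and NF-κB (QuantiBlue, 620 nm absorbance), and wells under 70% of agonist-control IncuCyte confluency in both mask sets were marked cytotoxic.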
# RAW-Dual [2] = experiment: IRF Lucia reporter activity, fold change vs agonist alone; cytotoxicity flag (confluency mask): not cytotoxic; higher = enhanced IRF activity
# Outline: as §1
# RAW-Dual [3] = experiment: IRF Lucia reporter activity, fold change vs agonist alone; cytotoxicity flag (confluency mask): cytotoxic (confluency <70% of control); higher = enhanced IRF activity
# Outline: as §1
# [4] = library stock concentration (final ~1000-fold dilution): 10 mM
# [5] = agonist: 3'3'-cGAMP (STING) 10 ug/mL
# [6] = library stock concentration (final ~1000-fold dilution): 2 mM
smiles,measurement,setting,value
Cl.Cl.c1ccc(C2CC2NC2CCNCC2)cc1 (stereo not given),IRF Lucia reporter activity,RAW-Dual [1]; [4],1
Cl.Cl.c1ccc(C2CC2NC2CCNCC2)cc1 (stereo not given) (library stock concentration (final ~1000-fold dilution): 10 mM),IRF Lucia reporter activity,RAW-Dual [2]; [5],0.792
same,IRF Lucia reporter activity,RAW-Dual [2]; agonist: LPS (TLR4) 0.1 ug/mL,1.13
CN1C2CCC1CC(OC(=O)C(CO)c1ccccc1)C2.CN1C2CCC1CC(OC(=O)C(CO)c1ccccc1)C2.O.O=S(=O)(O)O (stereo not given),IRF Lucia reporter activity,RAW-Dual [1]; [4],0.941
CN1C2CCC1CC(OC(=O)C(CO)c1ccccc1)C2.CN1C2CCC1CC(OC(=O)C(CO)c1ccccc1)C2.O.O=S(=O)(O)O (stereo not given) (library stock concentration (final ~1000-fold dilution): 10 mM),IRF Lucia reporter activity,RAW-Dual [2]; [5],0.993
same,IRF Lucia reporter activity,RAW-Dual [2]; agonist: LPS (TLR4) 0.1 ug/mL,0.828
Br.C[N+]1([O-])C2CC(OC(=O)C(CO)c3ccccc3)CC1C1OC12.O (stereo not given),IRF Lucia reporter activity,RAW-Dual [1]; [4],1.11
Br.C[N+]1([O-])C2CC(OC(=O)C(CO)c3ccccc3)CC1C1OC12.O (stereo not given) (library stock concentration (final ~1000-fold dilution): 10 mM),IRF Lucia reporter activity,RAW-Dual [2]; [5],1.02
same,IRF Lucia reporter activity,RAW-Dual [2]; agonist: LPS (TLR4) 0.1 ug/mL,0.995
BrC1C(Br)C(Br)C(Br)C(Br)C1Br (stereo not given) (library stock concentration (final ~1000-fold dilution): 2 mM),IRF Lucia reporter activity,RAW-Dual [2]; [5],0.247
same,IRF Lucia reporter activity,RAW-Dual [2]; agonist: LPS (TLR4) 0.1 ug/mL,1.09
BrC1C(Br)C(Br)C(Br)C(Br)C1Br (stereo not given),IRF Lucia reporter activity,RAW-Dual [1]; [6],1.23
c1cc2c(cc1C1OCC3C(c4ccc5c(c4)OCO5)OCC13)OCO2 (stereo not given) (library stock concentration (final ~1000-fold dilution): 10 mM),IRF Lucia reporter activity,RAW-Dual [2]; [5],0.953
same,IRF Lucia reporter activity,RAW-Dual [2]; agonist: LPS (TLR4) 0.1 ug/mL,0.811
c1cc2c(cc1C1OCC3C(c4ccc5c(c4)OCO5)OCC13)OCO2 (stereo not given),IRF Lucia reporter activity,RAW-Dual [1]; [4],0.972
CCC1(O)C(=O)OCc2c1cc1n(c2=O)Cc2cc3ccccc3nc2-1 (stereo not given) (library stock concentration (final ~1000-fold dilution): 2 mM),IRF Lucia reporter activity,RAW-Dual [2]; [5],1.91
same,IRF Lucia reporter activity,RAW-Dual [2]; agonist: LPS (TLR4) 0.1 ug/mL,2.77
CCC1(O)C(=O)OCc2c1cc1n(c2=O)Cc2cc3ccccc3nc2-1 (stereo not given),IRF Lucia reporter activity,RAW-Dual [1]; [6],1.65
CCC1(c2cccc(O)c2)CCCCN(C)C1.Cl (stereo not given) (library stock concentration (final ~1000-fold dilution): 10 mM),IRF Lucia reporter activity,RAW-Dual [2]; [5],0.976
same,IRF Lucia reporter activity,RAW-Dual [2]; agonist: LPS (TLR4) 0.1 ug/mL,0.972
CCC1(c2cccc(O)c2)CCCCN(C)C1.Cl (stereo not given),IRF Lucia reporter activity,RAW-Dual [1]; [4],1
C=CC1CN2CCC3(C(=O)Nc4ccccc43)C2CC1/C(=C\OC)C(=O)OC (stereo not given) (library stock concentration (final ~1000-fold dilution): 10 mM),IRF Lucia reporter activity,RAW-Dual [2]; [5],1.1
same,IRF Lucia reporter activity,RAW-Dual [2]; agonist: LPS (TLR4) 0.1 ug/mL,0.887
c1ccc2c(c1)[I+]c1ccccc1-2 (library stock concentration (final ~1000-fold dilution): 10 mM),IRF Lucia reporter activity,RAW-Dual [2]; [5],0.573
same,IRF Lucia reporter activity,RAW-Dual [2]; agonist: LPS (TLR4) 0.1 ug/mL,1.97
same,IRF Lucia reporter activity,RAW-Dual [3]; [5],0.184
same,IRF Lucia reporter activity,RAW-Dual [3]; agonist: LPS (TLR4) 0.1 ug/mL,0.265
CCC1=CC2CN3CCc4c([nH]c5ccccc45)C(C(=O)OC)(C2)C13 (stereo not given) (library stock concentration (final ~1000-fold dilution): 10 mM),IRF Lucia reporter activity,RAW-Dual [2]; [5],0.847
same,IRF Lucia reporter activity,RAW-Dual [2]; agonist: LPS (TLR4) 0.1 ug/mL,1.1
CCC1=CC2CN3CCc4c([nH]c5ccccc45)C(C(=O)OC)(C2)C13 (stereo not given),IRF Lucia reporter activity,RAW-Dual [1]; [4],1.1
Cl.N=C(N)NN (library stock concentration (final ~1000-fold dilution): 10 mM),IRF Lucia reporter activity,RAW-Dual [2]; [5],1.02
same,IRF Lucia reporter activity,RAW-Dual [2]; agonist: LPS (TLR4) 0.1 ug/mL,1.41
Cl.N=C(N)NN,IRF Lucia reporter activity,RAW-Dual [1]; [4],0.954
CCC1(c2ccc(N)cc2)CCC(=O)NC1=O (stereo not given),IRF Lucia reporter activity,RAW-Dual [1]; [4],0.959
CCC1(c2ccc(N)cc2)CCC(=O)NC1=O (stereo not given) (library stock concentration (final ~1000-fold dilution): 10 mM),IRF Lucia reporter activity,RAW-Dual [2]; [5],1.05
same,IRF Lucia reporter activity,RAW-Dual [2]; agonist: LPS (TLR4) 0.1 ug/mL,0.98
CCC12C=CCN3CCC4(c5ccc(OC)cc5N(C)C4C(O)(C(=O)OC)C1OC(C)=O)C32 (stereo not given),IRF Lucia reporter activity,RAW-Dual [1]; [4],1.06
CCC12C=CCN3CCC4(c5ccc(OC)cc5N(C)C4C(O)(C(=O)OC)C1OC(C)=O)C32 (stereo not given) (library stock concentration (final ~1000-fold dilution): 10 mM),IRF Lucia reporter activity,RAW-Dual [2]; [5],0.891
same,IRF Lucia reporter activity,RAW-Dual [2]; agonist: LPS (TLR4) 0.1 ug/mL,1.25
Br.NCCc1cc(O)c(O)cc1O,IRF Lucia reporter activity,RAW-Dual [1]; [4],0.982
Br.NCCc1cc(O)c(O)cc1O (library stock concentration (final ~1000-fold dilution): 10 mM),IRF Lucia reporter activity,RAW-Dual [2]; [5],0.589
same,IRF Lucia reporter activity,RAW-Dual [2]; agonist: LPS (TLR4) 0.1 ug/mL,1.21
Cl.NCCc1ccc(S(=O)(=O)F)cc1 (library stock concentration (final ~1000-fold dilution): 10 mM),IRF Lucia reporter activity,RAW-Dual [2]; [5],0.879
same,IRF Lucia reporter activity,RAW-Dual [2]; agonist: LPS (TLR4) 0.1 ug/mL,1.15
Cl.NCCc1ccc(S(=O)(=O)F)cc1,IRF Lucia reporter activity,RAW-Dual [1]; [4],1.36
COc1ccc(O)c(C(C)(C)C)c1 (library stock concentration (final ~1000-fold dilution): 10 mM),IRF Lucia reporter activity,RAW-Dual [2]; [5],0.973
same,IRF Lucia reporter activity,RAW-Dual [2]; agonist: LPS (TLR4) 0.1 ug/mL,1.09
COc1ccc2c3c([nH]c2c1)C(C)=NCC3 (library stock concentration (final ~1000-fold dilution): 10 mM),IRF Lucia reporter activity,RAW-Dual [2]; [5],0.828
same,IRF Lucia reporter activity,RAW-Dual [2]; agonist: LPS (TLR4) 0.1 ug/mL,0.947
COc1ccc2c3c([nH]c2c1)C(C)=NCC3,IRF Lucia reporter activity,RAW-Dual [1]; [4],0.921
